{"source": "the supplement of paper PMC4604168 (melanoma cell lines)", "note": "Some of the results follow. Many values rest on one well or one pass, so single values are uncertain.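 Also: cells treated in 1,536-well plates, then fixed and DAPI-stained, with nuclei counted from automated high-throughput microscope images.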", "data": [{"tested_on": "IPC-298", "assay": "cell count relative to DMSO control; melanoma cells; higher = more viable cells", "settings": "library dose: standard library concentration; 72 h", "units": {"cell count": "%"}, "values": [{"smiles": "CC(C)(C)c1cnc(CSc2cnc(NC(=O)C3CCNCC3)s2)o1", "note": "+ Oc1cc(-c2nc(-c3ccccc3)[nH]c2-c2ccncc2)ccc1Cl [L779450] (first compound 0.05 µM, partner dose 1 µM)", "cell count": 92.2}, {"smiles": "CCc1ccc(CCOc2ccc(CC3SC(=O)NC3=O)cc2)nc1", "note": "(stereo unspecified) [pioglitazone] + Oc1nc(-c2ccc(C(F)(F)F)cc2)nc2c1CSCC2 [XAV939] (first compound 10 µM, partner dose 10 µM)", "cell count": 88.3}, {"smiles": "COc1cc2c(Oc3ccc4[nH]c(C)cc4c3F)ncnc2cc1OCCCN1CCCC1", "note": "[cediranib] + Cn1cc(/C=C2\\C(=O)Nc3cccnc32)c2ccccc21 [GW441756] (first compound 2 µM, partner dose 2 µM)", "cell count": 85.6}, {"smiles": "CCCCCCCCc1ccc(CCC(N)(CO)CO)cc1", "note": "[fingolimod] + Cn1cncc1[C@@](N)(c1ccc(Cl)cc1)c1ccc2c(c1)c(-c1cccc(Cl)c1)cc(=O)n2C [tipifarnib] (first compound 10 µM, partner dose 0.05 µM)", "cell count": 58.8}, {"smiles": "CCc1ccc(CCOc2ccc(CC3SC(=O)NC3=O)cc2)nc1", "note": "(stereo unspecified) [pioglitazone] + Cc1cc([N+](=O)[O-])ccc1NS(=O)(=O)c1cc(Cl)ccc1Cl [FH535] (first compound 10 µM, partner dose 5 µM)", "cell count": 46.5}, {"smiles": "CCCCCCCCc1ccc(CCC(N)(CO)CO)cc1", "note": "[fingolimod] + COCC[n+]1c2c(n(Cc3cnccn3)c1C)C(=O)c1ccccc1C2=O [YM155] (first compound 10 µM, partner dose 0.002 µM)", "cell count": 19.6}]}]}
